Results from PubChem BioAssay AID1963576 (National Center for Advancing Translational Sciences (NCATS), 2024).
Out of some 46,000 compounds screened, about 60 (0.1%) were called active. Not shown: some 3% with an inconclusive outcome. Calls follow the shape of the dose curve; as a rule, active = well fitted inhibition curve with a large enough effect; inconclusive = small, poorly fitted or top-dose-only effect; inactive = no such curve, though single readings can be large or run the other way. This is one part of the list.

Assay: Primary qHTS assay for Inhibitors of ovarian cancer metastasis using an organotypic tumor microenvironment (TME) model. Also: nearly all actives have a fitted effect of over 65% in size.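 As to activity change, negative = inhibition: plate controls were DMSO wells for no effect and tomatine positive control wells for full effect.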
Settings: SKOV3ip1-GFP adhesion/invasion on 3D omental model, fluorescence; series mostly up to 45.8 µM; activity change, negative = inhibition: at the top concentration
Method in brief: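 A 3D layer of primary human omental fibroblasts, mesothelial cells, fibronectin and collagen I, grown 48 hr, received SKOV3ip1-GFP cells in serum-free medium plus compounds at 0.36-46 umol/L. After 2 hr RT and 16 hr 37 C, fixed adherent GFP cells were counted; normalized to DMSO and tomatine.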

Activity change, negative = inhibition, inactive:
CCCCCN1C(C(=O)c2ccccc2)=C(NC(=O)c2ccc(OC)cc2)c2ccccc2S1(=O)=O 5.03%
COc1ccc(NC(=O)c2ccc(-c3nc(CSc4ccc(C)cc4)c(C)o3)cc2)cc1Cl 1.25%
COc1ccccc1C(=O)Oc1c(Sc2ccccc2)c(C)nn1C(C)(C)C -4.91%
Cc1ccc(NC(=O)c2cc(S(=O)(=O)N(C)C3CCCCC3)ccc2F)cc1C -0.898%
COc1ccc(-c2c3c(=O)n(C)c(=O)n(C)c3c3n2-c2ccccc2NC3c2ccc(OC)cc2)cc1 (configuration not stated) 1.98%
CCC(=O)N1CCc2cc(S(=O)(=O)NC(C(=O)NCCc3ccccc3)C(C)C)ccc21 (configuration not stated) 4.3%
Cc1cc(C)c(NC(=O)C(C)n2c(=O)c(C(F)(F)F)nc3ccccc32)c(C)c1 (configuration not stated) 0.82%
Cc1cccc(-n2ncc(C(=O)N3CCN(C4CCCCC4)CC3)c2C2CCN(C(=O)OC(C)(C)C)CC2)c1 -10.1%
Cc1cc(C)cc(OCC(=O)Nc2nc3c(s2)CC(C(C)(C)C)CC3)c1 (configuration not stated) -7.21%
CCOc1ccc(NC(=O)CSC2=Nc3ccccc3C3=NC(CCC(=O)NCc4ccccc4)C(=O)N23)cc1 (configuration not stated) -2.94%
Cc1ccc(CNC(=O)c2ccc3c(c2)nc(C)n3-c2cccc(F)c2)cc1 -5.58%
Cc1c(Cl)cccc1NC(=O)c1cccc(NC(=O)N2CCSc3ncccc32)c1 -1.94%
CCCCOc1ccc(-c2nn(-c3ccccc3)cc2C2NC(=O)NC(C)=C2C(=O)OCC)cc1 (configuration not stated) -0.836%
Cc1cc(C(F)(F)F)n2nc(-c3ccc(Br)cc3)cc2n1 4.06%
C[C@]12CC[C@H](O)CC1=CCC1C2CC[C@]2(C)C(n3cnc4ccccc43)=CCC12 (some centres not stated) 20.5%
O=C(NCCc1ccccc1)c1cnc2sc(N3CCCCCC3)nn2c1=O -3.98%
O=C(c1cc2ccccc2oc1=O)N1CCN(c2ccc(Cl)cc2)CC1 3.76%
Cc1cc2oc(C(=O)Nc3ccc(S(N)(=O)=O)cc3)cc(=O)c2cc1C -3.12%
COc1ccccc1N1CCN(c2ncnc3c2cnn3-c2cc(Cl)ccc2C)CC1 -4.81%
Cc1ccc(CSc2nc3ccc(NC(=O)COc4ccccc4)cc3s2)cc1 -5.59%
CCOC(=O)c1ccc(N2C(=O)c3[nH]nc(-c4ccc(C)cc4)c3C2c2cccc(F)c2)cc1 (configuration not stated) -34.5%
COc1ccc(OC)c(CNC(=O)c2cc3c(-c4ccc(OC)c(OC)c4)nn(C)c3s2)c1 28%
Cc1ccc(NC(=O)c2ccc(-c3cccc(Cl)c3C)o2)cc1 -2.19%
CCc1ccc2nc(N(CCN(CC)CC)C(=O)c3ccco3)sc2c1 -7.26%
O=C1OC(C(=O)Nc2cccc(Br)c2)Cc2ccccc21 (configuration not stated) -3.95%
Cc1cccc(-n2ncc(C(=O)N3CCN(c4ccc(Cl)cc4)CC3)c2C2CCN(C(=O)OC(C)(C)C)CC2)c1 -4.14%
COc1ccc(CNC(=O)Cn2c(SCC(=O)Nc3ccc(OC)cc3)nc3ccccc32)cc1 -1.77%
Cn1nc(C(=O)NCc2ccc(Cl)cc2)c2c1-c1ccccc1S(=O)(=O)C2 -5.64%
Cc1ccc(C)c(NC(=O)CN2CCCN(Cc3cccc(Cl)c3)S2(=O)=O)c1 -4.38%
Cc1cccc(N2C(=O)N(CC(=O)C(C)(C)C)c3ccccc3S2(=O)=O)c1C -14.1%
CN(C)S(=O)(=O)N(CC(=O)NCCSCc1ccccc1)c1ccccc1 14.4%
CCc1ccc(Sc2cc(C(=O)NCc3ccccc3OC)c3ccccc3n2)cc1 -8.36%
CCn1c(=O)cc(SCC(=O)NCc2ccc(F)cc2Cl)c2ccccc21 5.02%
CCOc1ccc(N2CC(NC(=O)C(=O)c3c[nH]c4ccccc34)CC2=O)cc1 (configuration not stated) -4.31%
COc1ccc(C2NC(=O)N(C)C3=C2C(=O)N(c2cccc(Cl)c2)C3)cc1 (configuration not stated) -6.71%
COC(=O)c1ccc(OCC2c3cc(OC)c(OC)cc3CCN2C(=O)Cc2ccc(OC)cc2)cc1 (configuration not stated) -4.9%
Cc1nn2c(-c3cccc(NC(=O)c4ccccc4)c3)nnc2c2ccccc12 2.1%
COc1ccc(CNC(=O)c2ccc(N3CCCC3)c(NC(=O)NCc3ccc(C)cc3)c2)cc1 0.888%
CCc1ccccc1NC(=O)CN(Cc1ccccc1)S(=O)(=O)c1ccc(Br)cc1 0.13%
O=C(Nc1ccc(F)cc1)c1oc2ccccc2c1NC(=O)C12CC3CC(CC(C3)C1)C2 -17.9%
Cc1cccc(OC(=O)CSc2nnc(CNC(=O)c3ccccc3)o2)c1C -4.26%
COc1ccc(CCNC(=O)c2ccc3c(c2)N(Cc2c(F)cccc2Cl)C(=O)CS3)cc1OC 2.76%
CCOC(=O)c1c(C)oc2ccc(N(C(=O)Oc3ccccc3)S(=O)(=O)c3ccc(CC)cc3)cc12 -4.6%
CC(C)c1ccc(OCC(=O)NC(Cc2c[nH]c3ccccc23)C(=O)O)cc1 (configuration not stated) -3.73%
O=C(Cc1ccccc1)N(Cc1cccnc1)c1nc2c(F)cc(F)cc2s1 2.91%
COc1ccc(-c2cc(C)no2)cc1S(=O)(=O)N1CCOc2ccccc21 9.18%
COc1ccc(-c2cn3c(n2)sc2cc(C(=O)Nc4ccc(C)c(C)c4)ccc23)cc1 -8.59%
COc1ccc(C2CC(=O)c3cc(-c4nc(-c5ccc(Cl)cc5)c(C)s4)c(=O)[nH]c3C2)cc1 (configuration not stated) 6.87%
Cc1ccc2c(c1)-c1cc(C)nn1C(c1cc(Br)ccc1O)N2 (configuration not stated) -16.5%
CCOC(=O)c1c(C)[nH]c(C)c1S(=O)(=O)N1CCC(C(=O)N2CCN(c3ccccc3F)CC2)CC1 -4.01%
COc1cccc(NC(=O)CSC2=Nc3ccccc3C3=NC(CC(=O)NC4CCCCC4)C(=O)N23)c1 (configuration not stated) -4.97%
CCc1nnc(SCc2cc(C)ccc2C)c2cc3sc(C)cc3n12 -10.6%
COc1ccc(NC(=O)C(C)n2nc(-c3ccc(C)c(C)c3)ccc2=O)cc1OC (configuration not stated) 1.61%
CC(C)(C)c1ccc(C(=O)NCC(c2cccs2)S(=O)(=O)c2ccccc2)cc1 (configuration not stated) -13.8%
CC(=O)c1ccc(N2CCN(c3ccc(NC(=O)c4ccc(F)cc4)cc3C(=O)O)CC2)cc1 3.32%
Cc1cc(C)c2c(=O)cc(C(=O)Nc3ccccc3C(F)(F)F)oc2c1 -3.25%
CCc1ccc(CNC(=O)c2ccc(NC(=O)N3CC(C)Sc4ccccc43)cc2)cc1 (configuration not stated) 2.21%
COC(=O)c1ccc2c(=O)n(CCCCCC(=O)NCc3ccc(Cl)cc3)c(=O)[nH]c2c1 37.4%
Cc1ccc2ncc(C(=O)Nc3ccc(F)cc3F)c(=O)n2c1 14%
O=S(=O)(Nc1nc2n(n1)C(c1ccc(F)cc1)C=C(c1ccccc1)N2)c1ccccc1 (configuration not stated) 6.93%
CCNC(=O)[C@H]1O[C@@H](n2cnc3c(N)nc(NCCc4ccc(CCC(=O)O)cc4)nc32)[C@H](O)[C@H]1O -13.8%
O=C(Nc1cc(-c2nc3ccccc3o2)ccc1Cl)c1ccc(N2CCCCC2)c([N+](=O)[O-])c1 -12.7%
CN(C(=O)c1cc2nc(-c3ccco3)cc(C(F)(F)F)n2n1)c1ccc(OC(F)(F)Cl)cc1 6.11%
CCOC(=O)c1c(-c2ccc(Br)cc2)csc1NC(=O)c1ccc(F)cc1 -0.336%
COC(=O)c1ccccc1NC(=O)CSc1nc2ccccc2nc1Cc1ccccc1OC -6.45%
CC(C)OCCCNC(=O)c1ccc2c(c1)NC(=O)c1ccccc1S2 3.29%
Cc1ccc(-c2nc(SCCOc3ccccc3C)n3[nH]c(=O)cc3n2)cc1 0.842%
Cc1ccc(NC(=O)Cn2cc(S(=O)(=O)c3ccc(C)cc3)c(=O)c3cc4c(cc32)OCO4)cc1 9.35%
COc1ccc(C2c3c(n(C)c4ccccc34)C(=O)N2CC(=O)Nc2ccc(C)c(Cl)c2)cc1 (configuration not stated) 31.3%
CC1=C(c2ccc(C)c(C)c2)S(=O)(=O)N=C1N1CCC(C(=O)N2CCC(C(N)=O)CC2)CC1 -0.637%
O=C1COc2cc(S(=O)(=O)NCc3ccco3)c(Cl)cc2N1 -23.5%
O=c1c2oc3ccccc3c2n(Cc2ccc(Cl)cc2)c(=O)n1Cc1ccco1 -10.9%
Cc1ccccc1C(=O)Nc1ccc(OCc2cc(=O)n3cccc(C)c3n2)cc1 3.63%
COc1ccc(NC(=O)Nc2nnc(C)s2)cc1 -1.11%

outcome, inactive:
CCN(c1cccc(C)c1)S(=O)(=O)c1ccc(N2CCCCS2(=O)=O)cc1
COc1ccc(CNc2nc(SCc3ccc(Cl)cc3)nc3ccccc23)cc1
COc1ccc(OC)c2sc(NC(=O)c3ccc(S(=O)(=O)N4CCCC4)cc3)nc12
CCOC(=O)CC(NC(=O)CCc1c(C)nc2c(c(C)nn2-c2ccc(C)c(C)c2)c1C)c1ccc(C)cc1 (configuration not stated)
CC(NC(=O)c1ccc2c(c1)CCN2S(C)(=O)=O)c1ccccc1 (configuration not stated)
Cc1ccc(C(=O)N2c3ccc(C)cc3C(C)(c3ccccc3)CC2(C)C)cc1 (configuration not stated)
COc1ccc(OCC(=O)NCc2ccc3c(c2)CCN3C(=O)c2ccccc2)cc1
CCc1cccc(NC(=O)CN2C(=O)COc3ccc(S(=O)(=O)Nc4ccccc4)cc32)c1
Cc1ccc(OCc2nc(-c3ccc(C(=O)N4CCN(c5ccccc5F)CC4)cc3)oc2C)cc1
COc1ccc(Cl)cc1NC(=O)c1cc(S(=O)(=O)NC2CCCCCC2)ccc1F
CCCCCn1c(=O)[nH]c2cc(C(=O)Nc3cc(C)cc(C)c3)ccc2c1=O
Cc1cc(OC(C)C(=O)Nc2c(C(=O)c3ccc(F)cc3)oc3ccccc23)ccc1Cl (configuration not stated)
Cc1cccc(NC(=O)CSc2cn(CC(=O)N3CCCCCC3)c3ccccc23)c1
CCc1ccc(Sc2cc(C(=O)NCc3cccc(OC)c3)c3ccccc3n2)cc1
O=C(Nc1cc(Cl)cc(Cl)c1)c1ccc(F)c(S(=O)(=O)N2CCc3ccccc32)c1
Cc1cccc(N2CCN(C(=O)CCc3nnc4n(CC(C)C)c(=O)c5ccccc5n34)CC2)c1C
Cc1cc(NC(=O)CCS(=O)(=O)c2cc3c4c(c2)CCN4C(=O)CC3)ccc1Br
Cc1ccc(CSc2cn(CC(=O)N3CCCC3)c3ccccc23)cc1
